Assay results reported in patent US6787670B1, “Glyoxyl acid amides, method for producing them and their use for controlling harmful organisms” (priority 1999, dated 2004).

Test: physchem
Details: HPLC gradient method, acetonitrile/0.1% aqueous phosphoric acid
[1] = logP, single value printed for the substance
[2] = single value printed for the substance
[3] = logP, E isomer of the isomer mixture, value assigned by printed order of the isomer column
[4] = logP, Z isomer of the isomer mixture, value assigned by printed order of the isomer column

| SMILES | chromatographic logP [1] | also measured |
| --- | --- | --- |
| CO/N=C(\C(=O)NCCc1ccc(OCC(C)C)c(OC)c1)c1ccc2c(c1)CCCC2 [Example 45] | 4.74 |  |
| COc1cc(CCNC(=O)OC(C)(C)C)ccc1O [IV*−1, tert-butyl 4-hydroxy-3-methoxyphenethylcarbamate] | 2.09 |  |
| CO/N=C(\C(=O)NCCc1ccc(OC(C)C)c(OC)c1)c1ccc2c(c1)CCCC2 [Example 62] | 3.89 |  |
| CO/N=C(\C(=O)NCCc1ccc(OCC(C)C)c(OC)c1)c1ccc2c(c1)CCCC2 [Example 46] |  | logP [2]: 4.45 |
| C=CCOc1ccc(CCNC(=O)/C(=N\OC)c2ccc(Br)cc2)cc1OC [Example 115] |  | chromatographic logP [3]: 3.33; chromatographic logP [4]: 3.6 |
| CCCCOc1ccc(CCNC(=O)/C(=N\OC)c2ccc3c(c2)CCCC3)cc1OC [Example 48] | 4.68 |  |
| CO/N=C(\C(=O)NCCc1ccc(OC(C)C)c(OC)c1)c1ccc2c(c1)CCCC2 [Example 61] |  | chromatographic logP [3]: 3.89; chromatographic logP [4]: 4.18 |
| CCOc1cc(CCNC(=O)/C(=N\OC)c2ccc3c(c2)CCCC3)ccc1OC [Example 100] | 3.49 |  |
| CCCCOc1ccc(CCNC(=O)/C(=N\OC)c2ccc3c(c2)CCCC3)cc1OC [Example 49] |  | logP [2]: 4.40 |
| COc1cc(CCNC(=O)OC(C)(C)C)ccc1OCC#N [II-a*−1, tert-butyl 4-(cyanomethoxy)-3-methoxyphenethylcarbamate] | 2.51 |  |
| CCc1ccc(/C(=N/OC)C(=O)NCCc2ccc(OC(C)C)c(OC)c2)cc1 [Example 60] | 3.54 |  |
| COc1cc(CCN)ccc1OCC#N [II-a-1, 2-[4-(cyanomethoxy)-3-methoxyphenyl]-1-ethanaminium chloride] | 0.1 |  |
| CON=C(C(=O)NCCc1ccc(OCC#N)c(OC)c1)c1ccc2c(c1)CCCC2 [Example 1, N-[4-(cyanomethoxy)-3-methoxyphenethyl]-2-(methoxyimino)-2-(5,6,7,8-tetrahydro-2-naphthyl)acetamide] |  | chromatographic logP (log P, Isomer A, Isomer A of the mixture of isomers): 3.16; chromatographic logP (log P, Isomer B, Isomer B of the mixture of isomers): 3.41 |
| COCCOc1ccc(CCNC(=O)/C(=N/OC)c2ccc3c(c2)CCCC3)cc1OC [Example 107] | 3.25 |  |
